Source: US20150168420A1, “BIOORTHOGONAL CHEMICAL INDUCERS OF REVERSIBLE DIMERIZATION FOR CONTROL OF PROTEIN FUNCTION IN CELLS” (MAX-PLANCK-GESELLSCHAFT ZUR FÖRDERUNG DER WISSENSCHAFTEN …, priority 2012, published 2015)

Test system: Atg16L-Atg5-Atg12 complex
Settings: 1 μM; for autophagy (LC3 localization, LC3-II formation): starved EGFP-LC3 MCF-7 cells; for localization of Atg16L-Atg5-Atg12 complex: starved MCF-7 cells

For `CCC(C(=O)N1CCCCC1C(=O)O[C@H](CCc1ccc(OC)c(OC)c1)c1cccc(OCC(=O)NCCCOCCOCCOCCCNC(=O)COc2c(OC)cc(Cc3cnc(N)nc3N)cc2OC)c1)c1cc(OC)c(OC)c(OC)c1` (stereo partly shown) [SLF′-TMP], the “autophagy (LC3 localization, LC3-II formation)” value was “rapid and significant suppression of autophagy” and the “localization of Atg16L-Atg5-Atg12 complex” value was “rapid translocation of Atg16L-Atg5-Atg12 complex to the plasma membrane”.

With `COc1cc(Cc2cnc(N)nc2N)cc(OC)c1OC` [TMP, 5-(3,4,5-trimethoxybenzyl)pyrimidine-2,4-diamine] the “autophagy (LC3 localization, LC3-II formation)” value was “restores LC3-II formation” and the “localization of Atg16L-Atg5-Atg12 complex” value was “rapidly recovers the level of Atg16L complex in the cytosol”.
